Measurements: PMC4242493
The list shows a part of the results. The list includes weakly bound sequences.

molecular target: MaxL homodimer (UniProt P61244); assay: universal protein-binding microarray (PBM); conditions: PBS-based mixture, 10 nM His-tagged protein dimer, 2% milk, 200 ng/uL BSA, 50 ng/uL salmon testes DNA, 0.02% TX-100; detection with Alexa 488 anti-His …; high values mean tight binding; most listed sequences are background and not binding sites; double strand, one strand shown
UniProt P61244, sequence (P61244 whole entry): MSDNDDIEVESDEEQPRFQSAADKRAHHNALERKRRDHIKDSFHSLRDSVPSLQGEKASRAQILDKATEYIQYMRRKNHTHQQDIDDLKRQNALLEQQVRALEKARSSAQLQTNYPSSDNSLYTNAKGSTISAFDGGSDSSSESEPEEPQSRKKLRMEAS

Row | Sequence | binding signal (normalized occupancy)
1 | CAAAGCTC | 0.0662
2 | CAAATGTA | 0.0834
3 | GGTACCAA | 0.0733
4 | GTGGTTGA | 0.0778
5 | GACCACAC | 0.0868
6 | CGTTATAG | 0.0847
7 | ATAGATCC | 0.0731
8 | AGAGTAAA | 0.0718
9 | CCCGGATC | 0.0672
10 | CTGTAAAC | 0.0773
11 | ATATAACC | 0.081
12 | AGCGATCC | 0.0723
13 | GAGCAGCC | 0.0693
14 | GCTAAAAA | 0.0753
15 | AAGACCGC | 0.0664
16 | ATGCTTCC | 0.086
17 | ACGGTCCG | 0.0678
18 | AAAACTGA | 0.0695
19 | CGTCAGCA | 0.0763
20 | CGTGTCTA | 0.086
21 | CTAAGGCC | 0.072
22 | GCATGAAC | 0.0831
23 | ATCGCCTC | 0.0738
24 | AATTCTCT | 0.0743
25 | CCGCGGGA | 0.068

Row | Sequence | binding signal (normalized occupancy)
26 | TATGGGGA | 0.0827
27 | CAGAGGGC | 0.0689
28 | GTGCGCAC | 0.0897
29 | GCTTTGAA | 0.0684
30 | AACGACGT | 0.0737
31 | CCGACCAG | 0.0723
32 | AGCTGTAC | 0.0726
33 | GACTGTAA | 0.0716
34 | CATCATTC | 0.0839
35 | TGATACCA | 0.084
36 | GACAAACC | 0.0712
37 | AGCCAATG | 0.0715
38 | CGATGGTC | 0.0723
39 | GCGCAGAC | 0.0676
40 | CCGAGGCC | 0.0671
41 | CATCCGGC | 0.0735
42 | GTAACTAC | 0.0818
43 | ATCCAGAG | 0.0719
44 | GTGACAGA | 0.0813
45 | GTGCACTA | 0.0769
46 | AACGATGG | 0.0797
47 | CCTGGAAA | 0.0671
48 | ATCGGGAG | 0.0724
49 | TATCAATA | 0.0789
50 | ATCAGTGC | 0.0758

Row | Sequence | binding signal (normalized occupancy)
51 | ATGTTAAA | 0.084
52 | AGCCTTTG | 0.0703
53 | TTCGTAAA | 0.0736
54 | ATATGGTG | 0.085
55 | ATAACATA | 0.0882
56 | AAATACCG | 0.0727
57 | AAAGCAAA | 0.0703
58 | CATACAGC | 0.0781
59 | TTAAGTAA | 0.0799
60 | AAGGGTGA | 0.0757
61 | CAACGGGC | 0.0687
62 | AATTGTTA | 0.0728
63 | CTACCGCC | 0.0715
64 | GACCGCTC | 0.0649
65 | GCTCTCAC | 0.08
66 | AACCCTTA | 0.0789
67 | ACAGACTG | 0.0787
68 | AAAATGAA | 0.0817
69 | AGATTTAT | 0.0758
70 | ACAATAAG | 0.0733
71 | CAGCGAGA | 0.0735
72 | TATAGTAA | 0.0765
73 | TGGTGACA | 0.0846
74 | CAGCTTGG | 0.0714
75 | ATGCCCAT | 0.0847

Row | Sequence | binding signal (normalized occupancy)
76 | TGGACCCA | 0.0803
77 | ACCCAAAC | 0.0726
78 | CGCAATTA | 0.0738
79 | CTCGTAAG | 0.0694
80 | GTCAAAGA | 0.0724
81 | CGGCCAAG | 0.0668
82 | GGAAGTGA | 0.0792
83 | GACTTTCC | 0.0818
84 | AGTCGAAG | 0.0678
85 | AACGTCGC | 0.0703
86 | GAAGCCCA | 0.0698
87 | ATTGATTA | 0.0786
88 | AAATGACT | 0.07
89 | AAACATCT | 0.0733
90 | ATATAAAG | 0.0807
91 | ATGAACCA | 0.0801
92 | ATTATGAC | 0.0798
93 | AGCAGTTA | 0.0697
94 | ATCAGTAC | 0.0777
95 | ACGCCTGA | 0.0735
96 | GTGAGTCA | 0.0793
97 | ATCCCGCG | 0.0782
98 | CACATCCC | 0.0838
99 | ACCCACTG | 0.0719
100 | GGGGTGGA | 0.0834

Row | Sequence | binding signal (normalized occupancy)
101 | GCATTGCA | 0.0792
102 | AAAATAAA | 0.0771
103 | GCCAATCC | 0.0783
104 | GCCCTGAA | 0.0713
105 | CCTTAAGC | 0.0673
106 | GGACTAAC | 0.0743
107 | ATTGGACC | 0.0748
108 | GGAGTGAC | 0.0765
109 | CCCTTGAG | 0.0692
110 | CAACCGTA | 0.0753
111 | AACATACG | 0.0835
112 | ATCCGCGG | 0.0697
113 | AGCTATTA | 0.0767
114 | ACTTACAG | 0.0717
115 | ACCATACC | 0.0814
116 | ATACGAGC | 0.0801
117 | CTGCATCA | 0.0784
118 | GCGGGCCC | 0.0715
119 | GACTGTCA | 0.0739
120 | GATTCTAC | 0.0816
121 | ACTATCTC | 0.0739
122 | TCTACCCA | 0.0776
123 | AACGCCGG | 0.0701
124 | CATCGCGG | 0.0705
125 | GTACTAGA | 0.0741

Row | Sequence | binding signal (normalized occupancy)
126 | CGTAGCGA | 0.0668
127 | TATTCTCA | 0.0871
128 | CTCAGATA | 0.0717
129 | TCGGTTCA | 0.0732
130 | GCGGGGGA | 0.0803
131 | ATAGTCGC | 0.0765
132 | CTAGTCTC | 0.0733
133 | GGGTGCAA | 0.0755
134 | AGGTAATG | 0.0799
135 | ACAACAAT | 0.0771
136 | GCACGACC | 0.0777
137 | CCACGCAC | 0.0964
138 | CTATAGAC | 0.081
139 | ATCTTAAA | 0.0764
140 | TAGTGAGA | 0.0785
141 | ATTGTGGA | 0.0811
142 | ATCTGGTC | 0.0785
143 | GAAGCTCC | 0.0639
144 | ATTAAAAA | 0.0727
145 | CAACACCC | 0.0807
146 | CGACGTAA | 0.0689
147 | AAAAGGAC | 0.0745
148 | GATGCGAA | 0.0768
149 | ACGGTCTG | 0.0744
150 | CTACGTTC | 0.0704

Row | Sequence | binding signal (normalized occupancy)
151 | AACGTCTT | 0.0728
152 | ATAGCTGC | 0.0733
153 | GAAATAAA | 0.0763
154 | ATGCTACA | 0.0811
155 | TAAGCTAA | 0.0791
156 | GCTCTACC | 0.0705
157 | ACATGTGG | 0.209
158 | CAATAGAC | 0.0726
159 | GGTCGTAC | 0.0754
160 | CGTGGCAG | 0.0869
161 | CCTGACTC | 0.0726
162 | CCGAGGAA | 0.0732
163 | AGGCCAAG | 0.0714
164 | CAGGGCCG | 0.067
165 | AGCATAAA | 0.0804
166 | ATGTCCGG | 0.0748
167 | GTGCCCGA | 0.0729
168 | ACCTGGAA | 0.0771
169 | GAGGTCTA | 0.074
170 | CCTGAATC | 0.0737
171 | ATTGTGTG | 0.0839
172 | AGTCAAAT | 0.0746
173 | CATAAACA | 0.0744
174 | CTGGAGGC | 0.0733
175 | AAATCTCA | 0.0773

Row | Sequence | binding signal (normalized occupancy)
176 | ATATACTA | 0.087
177 | AAAAGGCT | 0.0703
178 | GAATATTA | 0.0775
179 | CTTGACGC | 0.0715
180 | CCTAATTC | 0.0746
181 | CGCAGGAC | 0.0705
182 | CCATAAGG | 0.0874
183 | CAGGATGC | 0.0729
184 | GGATGGAC | 0.0771
185 | CTATACGC | 0.0743
186 | ATATATTG | 0.0866
187 | AGAATCCA | 0.074
188 | GACTGTGA | 0.0764
189 | CTGGACCC | 0.0697
190 | GCTGAGTA | 0.0667
191 | GGTATACC | 0.0747
192 | CCGAGCGA | 0.0659
193 | ACGATCAC | 0.0754
194 | CAAATAGA | 0.0771
195 | CATGCGAA | 0.0898
196 | AGGCATTA | 0.0707
197 | ACGCTTGC | 0.0702
198 | GTTAGCAA | 0.0727
199 | AGACTCTC | 0.0766
200 | AATGCAAT | 0.0742

Row | Sequence | binding signal (normalized occupancy)
201 | CAGCACAA | 0.0753
202 | ATTTGCCG | 0.0669
203 | ATATGGAA | 0.0869
204 | CTTCGATC | 0.0681
205 | CTCAGCGC | 0.0701
206 | CCGAGAGG | 0.0685
207 | AATCATCG | 0.0795
208 | ACGTTCAA | 0.0795
209 | CCGGAAAG | 0.0655
210 | ATCAGATA | 0.0785
211 | AGGTGGGC | 0.0818
212 | GCGGTAGC | 0.0718
213 | CGTTAACA | 0.0785
214 | AACTACAT | 0.0852
215 | CTTGATAC | 0.0802
216 | GTACGGCA | 0.0724
217 | CTACGCTA | 0.0699
218 | AGTACGCC | 0.0673
219 | ATAGTTGC | 0.0808
